Measured values published in the supplement of paper PMC3334620.
The full ranking holds about 33,000 sequences; the median of “E-score (-0.5 to 0.5)” is about -0.043, and the highest 2% start at about 0.37. The list shows a part of the results.

Molecular target: T1, Upc2 (UniProt Q12151)
T1 sequence: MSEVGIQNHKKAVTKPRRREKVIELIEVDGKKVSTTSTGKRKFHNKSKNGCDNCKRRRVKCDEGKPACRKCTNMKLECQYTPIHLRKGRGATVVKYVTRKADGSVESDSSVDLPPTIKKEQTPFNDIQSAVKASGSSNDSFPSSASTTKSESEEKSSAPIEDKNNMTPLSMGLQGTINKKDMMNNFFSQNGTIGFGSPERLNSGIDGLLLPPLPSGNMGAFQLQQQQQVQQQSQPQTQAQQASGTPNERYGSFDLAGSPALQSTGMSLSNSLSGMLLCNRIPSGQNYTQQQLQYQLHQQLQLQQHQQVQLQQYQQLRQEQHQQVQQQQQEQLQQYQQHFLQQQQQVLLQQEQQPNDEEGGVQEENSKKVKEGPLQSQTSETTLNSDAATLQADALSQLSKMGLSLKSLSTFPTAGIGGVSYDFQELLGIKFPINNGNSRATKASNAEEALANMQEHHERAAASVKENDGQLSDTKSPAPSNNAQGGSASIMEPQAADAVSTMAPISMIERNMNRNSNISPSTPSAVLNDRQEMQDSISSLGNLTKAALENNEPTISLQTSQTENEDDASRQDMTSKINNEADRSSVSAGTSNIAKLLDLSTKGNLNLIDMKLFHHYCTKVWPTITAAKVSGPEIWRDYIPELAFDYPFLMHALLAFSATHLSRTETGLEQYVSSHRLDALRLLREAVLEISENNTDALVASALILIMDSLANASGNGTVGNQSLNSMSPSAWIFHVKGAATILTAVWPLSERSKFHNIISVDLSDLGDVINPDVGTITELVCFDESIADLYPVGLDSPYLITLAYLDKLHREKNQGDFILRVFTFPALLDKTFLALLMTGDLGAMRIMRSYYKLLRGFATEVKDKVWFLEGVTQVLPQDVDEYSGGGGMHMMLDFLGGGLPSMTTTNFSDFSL
Assay: PBM E-score (8-mer binding enrichment) (E-score (-0.5 to 0.5)); higher = stronger / more preferred TF binding; most listed sequences are background and not binding sites
Conditions: protein concentration: 200 nM; construct: GST-full length
How it was run: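 Masliner-normalised scans of fluorescent anti-GST signal were the basis for scoring. That signal came from GST-tagged yeast transcription factors applied at about 100-200 nM to double-stranded universal all-10-mer Agilent arrays on fresh or once-stripped slides. Each ungapped eight-base word, pooled with its reverse complement, received an E-score from the Universal PBM Analysis Suite.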

Question: With AATGTGAC as the sequence, how does the “PBM E-score” value read?
Answer: -0.138

Question: With GAGCGGAA as the sequence, how does the “PBM E-score” value read?
Answer: 0.0446

Question: With CACGAGGG as the sequence, how does the “PBM E-score” value read?
Answer: 0.114

Question: How did the “PBM E-score” value turn out when AGGACTAA was run?
Answer: -0.175

Question: Which “PBM E-score” value does the source give for CAACGGCC here?
Answer: -0.111

Question: With AAGTGTAA as the sequence, how does the “PBM E-score” value read?
Answer: -0.051

Question: Which “PBM E-score” value does the source give for ACTCACTG here?
Answer: -0.206

Question: With AACAACAA as the sequence, how does the “PBM E-score” value read?
Answer: 0.054

Question: For AAACGCGC, which “PBM E-score” value is on record?
Answer: 0.217

Question: CGTGTGCA was tested. Which “PBM E-score” value did it give?
Answer: -0.131

Question: CACCCGTC was tested. Which “PBM E-score” value did it give?
Answer: -0.188

Question: Which “PBM E-score” value does the source give for CAAGTGGG here?
Answer: -0.0996

Question: How did the “PBM E-score” value turn out when AATAGCCA was run?
Answer: -0.054

Question: How did the “PBM E-score” value turn out when GTTGCAAA was run?
Answer: 0.106

Question: How did the “PBM E-score” value turn out when AATTAATC was run?
Answer: 0.0954

Question: CTGCATGC was tested. Which “PBM E-score” value did it give?
Answer: -0.0745

Question: AGGGTCTC was tested. Which “PBM E-score” value did it give?
Answer: -0.231

Question: Which “PBM E-score” value does the source give for CTCCGCGC here?
Answer: -0.0602

Question: For GATCTCAC, which “PBM E-score” value is on record?
Answer: -0.206

Question: CCGACTAA was tested. Which “PBM E-score” value did it give?
Answer: 0.0553

Question: For TCTCGTCA, which “PBM E-score” value is on record?
Answer: -0.0265

Question: How did the “PBM E-score” value turn out when ATCTATGC was run?
Answer: -0.0274

Question: With AAGATCAA as the sequence, how does the “PBM E-score” value read?
Answer: -0.0151

Question: GACACTAA was tested. Which “PBM E-score” value did it give?
Answer: 0.0421

Question: With CGCGATAG as the sequence, how does the “PBM E-score” value read?
Answer: 0.121

Question: With AAACGCAC as the sequence, how does the “PBM E-score” value read?
Answer: 0.26

Question: With GAGAACTC as the sequence, how does the “PBM E-score” value read?
Answer: -0.127

Question: Which “PBM E-score” value does the source give for AACAGCCC here?
Answer: -0.122

Question: ATCGTACG was tested. Which “PBM E-score” value did it give?
Answer: 0.435

Question: AGTGCCTC was tested. Which “PBM E-score” value did it give?
Answer: -0.0833

Question: How did the “PBM E-score” value turn out when GCTTATAC was run?
Answer: 0.346

Question: For AGAGAGTA, which “PBM E-score” value is on record?
Answer: -0.0841

Question: With TCTGGAAA as the sequence, how does the “PBM E-score” value read?
Answer: 0.0349

Question: With CCCAGGTA as the sequence, how does the “PBM E-score” value read?
Answer: -0.214

Question: Which “PBM E-score” value does the source give for CCCCTCGA here?
Answer: -0.0221

Question: For CAATGGGC, which “PBM E-score” value is on record?
Answer: -0.258

Question: For CGTGGAGA, which “PBM E-score” value is on record?
Answer: -0.0514

Question: For ACGATTCG, which “PBM E-score” value is on record?
Answer: 0.333

Question: GGCTTAAC was tested. Which “PBM E-score” value did it give?
Answer: 0.137

Question: ATGAGCGG was tested. Which “PBM E-score” value did it give?
Answer: -0.0954

Question: Which “PBM E-score” value does the source give for GAGGCAAC here?
Answer: -0.104

Question: For AAGGGATG, which “PBM E-score” value is on record?
Answer: -0.197

Question: With CGCTGCTA as the sequence, how does the “PBM E-score” value read?
Answer: -0.0354

Question: Which “PBM E-score” value does the source give for TCCACCGA here?
Answer: -0.179

Question: Which “PBM E-score” value does the source give for GTTGGTAA here?
Answer: 0.206

Question: With ACGTCCAA as the sequence, how does the “PBM E-score” value read?
Answer: 0.0137

Question: How did the “PBM E-score” value turn out when AGAACTAT was run?
Answer: 0.111

Question: With ACCCGAGC as the sequence, how does the “PBM E-score” value read?
Answer: 0.203

Question: With TGTATCAA as the sequence, how does the “PBM E-score” value read?
Answer: -0.0549

Question: Which “PBM E-score” value does the source give for ATTCTCTG here?
Answer: -0.167

Question: Which “PBM E-score” value does the source give for GAGCTATA here?
Answer: -0.049

Question: AGTTATCA was tested. Which “PBM E-score” value did it give?
Answer: -0.103

Question: With CGCCTCCG as the sequence, how does the “PBM E-score” value read?
Answer: -0.148

Question: ACAAACTG was tested. Which “PBM E-score” value did it give?
Answer: -0.0534

Question: With AGGCGAGG as the sequence, how does the “PBM E-score” value read?
Answer: 0.0301

Question: Which “PBM E-score” value does the source give for CGGGAAGA here?
Answer: 0.169

Question: How did the “PBM E-score” value turn out when ATGTTATC was run?
Answer: 0.0151

Question: For AGTGCTGG, which “PBM E-score” value is on record?
Answer: -0.234

Question: Which “PBM E-score” value does the source give for GCCAGACA here?
Answer: -0.147

Question: With GGTGTCAC as the sequence, how does the “PBM E-score” value read?
Answer: -0.142

Question: For ATACCGGG, which “PBM E-score” value is on record?
Answer: 0.0605

Question: Which “PBM E-score” value does the source give for CTACTGAC here?
Answer: -0.241

Question: Which “PBM E-score” value does the source give for AGATCGCT here?
Answer: 0.0602

Question: Which “PBM E-score” value does the source give for ATTCAAAT here?
Answer: -0.033

Question: CTCGCTAA was tested. Which “PBM E-score” value did it give?
Answer: 0.309

Question: Which “PBM E-score” value does the source give for AGGCAAAT here?
Answer: -0.0745

Question: For AAAAACAG, which “PBM E-score” value is on record?
Answer: -0.0252

Question: How did the “PBM E-score” value turn out when TCGACCCA was run?
Answer: -0.0749

Question: ATGCATGC was tested. Which “PBM E-score” value did it give?
Answer: -0.148

Question: With AACGGAAC as the sequence, how does the “PBM E-score” value read?
Answer: 0.308

Question: For AGCAATAA, which “PBM E-score” value is on record?
Answer: -0.107

Question: Which “PBM E-score” value does the source give for GACTTGCA here?
Answer: 0.0268

Question: Which “PBM E-score” value does the source give for AGACACCA here?
Answer: -0.0334

Question: Which “PBM E-score” value does the source give for ACCCCGCA here?
Answer: 0.0175

Question: With CCTGTTGA as the sequence, how does the “PBM E-score” value read?
Answer: -0.114

Question: With AGAGTACA as the sequence, how does the “PBM E-score” value read?
Answer: -0.0785

Question: How did the “PBM E-score” value turn out when AGTTGTAT was run?
Answer: -0.135

Question: For ATTACGGG, which “PBM E-score” value is on record?
Answer: 0.0372

Question: With GAGCGTTA as the sequence, how does the “PBM E-score” value read?
Answer: -0.00232

Question: How did the “PBM E-score” value turn out when ATTGGCAC was run?
Answer: -0.184

Question: Which “PBM E-score” value does the source give for CTACGGAC here?
Answer: -0.0487

Question: GATACGGA was tested. Which “PBM E-score” value did it give?
Answer: 0.278

Question: With TAAGATCA as the sequence, how does the “PBM E-score” value read?
Answer: -0.0602

Question: How did the “PBM E-score” value turn out when GCAAGCCA was run?
Answer: -0.081

Question: Which “PBM E-score” value does the source give for GAATATGC here?
Answer: 0.0393

Question: Which “PBM E-score” value does the source give for CGCCTAAG here?
Answer: -0.0039
